# Reference: PubChem BioAssay AID1768 (National Center for Advancing Translational Sciences (NCATS), 2009)
# Several values for one entry are separate records, joined by “and”; a condition that tells them apart may be missing. Identical values can stand only once. In all, about 270,000 compounds went through this assay and about 620 (0.23%) were called active. This list was built around the results that the source calls inconclusive (neither active nor inactive); the mix of calls is not that of the screen. The call rests on the fitted dose curve; in most records, active means well fitted inhibition curve with a large enough effect in the polarisation, with a control signal flat (not every such curve was filed as active); inconclusive means small, poorly fitted or top-dose-only effect, or effect the other way, or a change in a side signal; inactive means no such curve, though single readings can be large or run the other way; the % refers to the polarisation. Where the call is inconclusive, the potency comes from a doubtful curve fit. A note “side channel” means that the fit belongs to a control or component signal, not to the main read-out.
# Target: Menin (Homo sapiens) (UniProt O00255)
# Sequence of UniProt O00255 (O00255 whole entry, looked up): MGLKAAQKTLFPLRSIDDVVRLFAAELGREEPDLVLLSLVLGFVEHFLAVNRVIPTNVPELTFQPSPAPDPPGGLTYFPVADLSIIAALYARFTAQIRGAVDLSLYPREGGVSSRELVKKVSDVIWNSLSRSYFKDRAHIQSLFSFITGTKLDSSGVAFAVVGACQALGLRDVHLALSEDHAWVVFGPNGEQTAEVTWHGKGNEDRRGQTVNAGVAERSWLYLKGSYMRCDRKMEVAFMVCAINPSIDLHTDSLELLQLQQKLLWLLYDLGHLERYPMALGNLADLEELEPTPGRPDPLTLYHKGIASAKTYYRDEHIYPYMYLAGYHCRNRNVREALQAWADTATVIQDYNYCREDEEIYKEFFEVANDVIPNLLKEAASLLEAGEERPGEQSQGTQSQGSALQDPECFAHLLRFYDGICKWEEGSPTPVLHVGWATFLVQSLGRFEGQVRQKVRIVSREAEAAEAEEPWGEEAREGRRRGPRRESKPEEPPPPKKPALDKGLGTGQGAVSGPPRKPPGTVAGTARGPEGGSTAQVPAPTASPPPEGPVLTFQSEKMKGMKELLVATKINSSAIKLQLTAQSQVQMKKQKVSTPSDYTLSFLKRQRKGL
# Assay: qHTS Assay for Inhibitors Targeting the Menin-MLL Interaction in MLL Related Leukemias: Competition With Texas Red Labeled MLL-derived Mutant Peptide
# Conditions: fluorescence polarization; series mostly up to 61.6 µM
# Potency means the concentration at half of the fitted maximal effect; tags describe the fitted curve by direction and shape or compound fluorescence and quenching.
row,Compound,Potency
1,CC(C)(C)OC(=O)N1C=CCC1CN1C(=O)COCC1=O (stereo unspecified),inactive
2,Cc1ccc(CC(=O)N/N=C/c2ccc(OC(=O)c3ccc([N+](=O)[O-])cc3)cc2)cc1,"inconclusive: 12.6 µM [quencher, side channel, partial curve]"
3,Cc1ccc(-c2cc(C(F)F)n3ncc(C(=O)N4CCN(c5cccc(C)c5C)CC4)c3n2)cc1,"inconclusive: 2.51 µM [fluorescent, side channel, full curve, poor fit]"
4,Cc1ccc(S(=O)(=O)N(CC(=O)NCCC2=CCCCC2)Cc2ccccc2)cc1,"inconclusive: 8.91 µM [fluorescent, side channel, partial curve]"
5,COc1ccc(NC(=O)CCS(=O)(=O)c2ccccc2Cl)cc1S(=O)(=O)Nc1ccc(Cl)cc1,"inconclusive: 7.94 µM [quencher, side channel, partial curve]"
6,N#Cc1c(NC(=O)c2ccc([N+](=O)[O-])o2)sc2c1CCC2,"inconclusive: 25.1 µM [quencher, side channel, single point]"
7,CCOC(=O)C1(S(=O)(=O)c2ccc(Cl)cc2)CCN(Cc2ccc(C)cc2)CC1,"inconclusive: 4.47 µM [inhibitor, single point]"
8,Cc1cccc(NC(=S)Nc2ccc(Oc3ccccc3)cc2)n1,"inconclusive: 31.6 µM [inhibitor, single point]"
9,COc1ccccc1OC(C)c1nnc(SCC(=O)Nc2c(C)n(C)n(-c3ccccc3)c2=O)n1-c1ccccc1 (stereo unspecified),"inconclusive: 2.82 µM [inhibitor, full curve, poor fit]"
10,COc1ccc(OC)c(S(=O)(=O)N/N=C(/C)c2c[nH]c3ccccc23)c1,"inconclusive: 8.91 µM [quencher, side channel, full curve]"
11,CC(=O)c1c(C)oc2ccc(NS(=O)(=O)c3ccc(O)c(C(=O)O)c3)cc12,"inconclusive: 28.2 µM [quencher, side channel, single point]"
12,Cc1cccc(OCC(O)Cn2ccnc2C)c1 (stereo unspecified),"inconclusive: 22.4 µM [inhibitor, partial curve]"
13,S=c1[nH]nc(Cc2ccc(Br)cc2)n1/N=C/c1ccc(Cl)cc1,"inconclusive: 39.8 µM [quencher, side channel, single point]"
14,CCc1nnc(NC(=O)CSc2nnc(-c3ccco3)o2)s1,inactive
15,CC(C)(C)c1ccc(S(=O)(=O)N2CCC(CO)(CC3CCCCO3)CC2)cc1 (stereo unspecified),"inconclusive: 7.08 µM [fluorescent, side channel, partial curve]"
16,Cc1c(C(=O)OC(C)C)sc(NC(=O)c2cccnc2)c1C#N,"inconclusive: 14.1 µM [quencher, side channel, partial curve]"
17,C=CCSc1nnc(NC(=O)c2cccc(S(=O)(=O)N(C)c3ccccc3)c2)s1,"inconclusive: 28.2 µM [quencher, side channel, partial curve]"
18,CCc1nc(N2CCCC(C)C2)c2oc3ccccc3c2n1 (stereo unspecified),"inconclusive: 8.91 µM [fluorescent, side channel, full curve]"
19,C=C(C)CSc1nc2sc3c(c2c(=O)n1-c1ccc(OC)cc1)CCN(C)C3,"inconclusive: 5.01 µM [inhibitor, full curve]"

row,Compound,Potency
1,Clc1ccc(/C=N/NC2=Nc3cccc4cccc2c34)cc1,"inconclusive: 15.8 µM [quencher, side channel, partial curve]"
2,O=C(NNC(=S)NC1CCCCC1)c1ccc(Cl)s1,"inconclusive: 25.1 µM [quencher, side channel, single point]"
3,Cc1cc(C)cc(N2C(=O)C3C4C=CC(C4)C3C2=O)c1 (stereo unspecified),inactive
4,CC1=Nc2cc([N+](=O)[O-])ccc2NC(C)(C)C1,"inconclusive: 25.1 µM [quencher, side channel, single point]"
5,C=C1CCc2c([nH]c3ccc(OCC(C)C)cc23)C1=O,"inconclusive: 12.6 µM [inhibitor, partial curve]"
6,CN(C)C(=O)/N=N/C(=O)N(C)C,inactive
7,CC12CCC(C(=O)Nc3cccc(Cl)c3)(C(Br)C1=O)C2(C)C (stereo unspecified),"inconclusive: 7.94 µM [quencher, side channel, full curve]"
8,COc1ccc(C)cc1NC(=O)C1CCCN1C(=O)OCc1ccccc1 (stereo unspecified),"inconclusive: 28.2 µM [fluorescent, side channel, single point]"
9,Cc1cc(C)nc(NC(=O)c2cc(-c3ccc4c(c3)OCO4)nc3ccccc23)c1,"inconclusive: 31.6 µM [quencher, side channel, single point]"
10,CCc1nc(N2CCN(C(=O)c3ccccc3)CC2)c(C#N)c2c1COC(C)(C)C2,"inconclusive: 7.08 µM [fluorescent, side channel, partial curve]"
11,C=CCn1c(-c2csc(-c3ccccc3)n2)n[nH]c1=S,inactive
12,COc1ccc(-c2cc(C(=O)OC3CCOC3=O)c3ccccc3n2)cc1 (stereo unspecified),"inconclusive: 22.4 µM [quencher, side channel, single point]"
13,COC(=O)c1cn(-c2cccc(C)n2)cn1,"inconclusive: 10 µM [inhibitor, partial curve, poor fit]"
14,O=C(Nc1ccc(NC(=O)c2cccc([N+](=O)[O-])c2)cc1)c1cccc([N+](=O)[O-])c1,"inconclusive: 15.8 µM [quencher, side channel, partial curve]"
15,CCCC(c1nnnn1CCC(C)C)N1CCC(C(N)=O)CC1 (stereo unspecified),"inconclusive: 6.31 µM [fluorescent, side channel, single point]"
16,CN(C)C(=O)CSc1nnc(Cc2ccc3c(c2)OCO3)o1,inactive
17,Cc1ccc(NC2=Nc3ccccc3N3C2=Nc2c(c(C)nn2-c2ccccc2)C3c2ccc(O)c(O)c2)cc1 (stereo unspecified),"inconclusive: 5.62 µM [quencher, side channel, partial curve]"
18,Cc1cccc(C)c1Nc1nnc(SCc2nc3ccccc3s2)s1,"inconclusive: 12.6 µM [inhibitor, single point]"
19,O=C(N/N=C/c1cccc(F)c1)c1cc(-c2ccco2)nc2ccccc12,"inconclusive: 12.6 µM [quencher, side channel, partial curve]"

row,Compound,Potency
1,COc1cc2cc3c(N)c(C(=O)Nc4sc(C)c(C)c4C#N)sc3nc2cc1OC,"inconclusive: 25.1 µM [quencher, side channel, partial curve]"
2,Cc1ccc(NC(=S)Nc2ccc(OC(F)F)c(Cl)c2)cc1F,"inconclusive: 14.1 µM [quencher, side channel, partial curve]"
3,O=C(Nc1ccc(Cc2ccncc2)cc1)c1ccc(Cl)c([N+](=O)[O-])c1,"inconclusive: 31.6 µM [quencher, side channel, single point]"
4,CCC(=O)N1CC23C=CC(CC2CC12CCCCC2)O3 (stereo unspecified),"inconclusive: 39.8 µM [quencher, side channel, single point]"
5,CC1CCN(S(=O)(=O)c2ccc(NC(=O)Cn3nnc(-c4ccccc4)n3)cc2)CC1,"inconclusive: 39.8 µM [fluorescent, side channel, single point]"
6,O=C(NCc1cccs1)Nc1cc(Cl)ccc1Cl,inactive
7,Cc1ccccc1Cc1c(C)nc2c(C(=O)NCc3ccc4c(c3)OCO4)cnn2c1C,inactive
8,CC1=NN(c2ccccc2)C(=O)/C1=C\c1ccc(Br)s1,"inconclusive: 14.1 µM [quencher, side channel, partial curve]"
9,N[C@@H](Cc1cc(I)c(Oc2ccc(O)c(I)c2)c(I)c1)C(=O)O,"inconclusive: 39.8 µM [quencher, side channel, single point] and inconclusive: 7.94 µM [quencher, side channel, full curve] and inconclusive: 3.55 µM [quencher, side channel, full curve]"
10,Cc1cc(=O)oc2cc(O[C@@H]3O[C@H](C(=O)O)[C@@H](O)[C@H](O)[C@H]3O)ccc12,inactive
11,Cc1ccccc1COC[C@H](CC(C)C)N1CCN(C(=O)c2cccc(C(F)(F)F)c2)CCC1=O,"inconclusive: 8.91 µM [fluorescent, side channel, partial curve]"
12,COc1ccccc1NC(=O)c1ccc(-n2cccn2)c([N+](=O)[O-])c1,"inconclusive: 28.2 µM [quencher, side channel, partial curve]"
13,CC(C)c1cc(C(=O)N2CCN(C(c3ccccc3)c3ccccc3)CC2)no1,"inconclusive: 35.5 µM [fluorescent, side channel, partial curve]"
14,COc1ccc(CN(C(=S)Nc2ccccc2)C2CC(=O)N(c3ccc(Cl)cc3)C2=O)cc1 (stereo unspecified),"inconclusive: 7.08 µM [quencher, side channel, partial curve]"
15,CCCCOC(=O)Cn1c(=O)n(CC(=O)OCCCC)c2ccccc21,"inconclusive: 8.91 µM [fluorescent, side channel, full curve, poor fit]"
16,Nc1c(-c2cccc(Cl)c2)cnc2c(-c3ccccc3)cnn12,"inconclusive: 10 µM [quencher, side channel, partial curve]"
17,CCN1CCN(C(=S)Nc2cccc(C(F)(F)F)c2)CC1,inactive
18,CC(C)=CCC1=C(OCC(=O)O)C(=O)c2ccccc2C1=O,"inconclusive: 15.8 µM [quencher, side channel, partial curve]"
